This note sets out measurements from PubChem BioAssay AID1645887 (National Center for Advancing Translational Sciences (NCATS), 2021).

Values joined by “and” are separate entries in the source; they are usually repeats but may differ in a detail not shown here. Identical values can stand only once. Screen size: about 16,000 compounds; about 40 (0.2%) were called active. Not shown: some 1% with an inconclusive outcome. Calls follow the shape of the dose curve; as a rule, active = well fitted activation curve with a large enough effect; inconclusive = small, poorly fitted or top-dose-only effect, or another doubt; inactive = no such curve, though single readings can be large or run the other way. Some of the results follow.
% is scaled to controls: 0 for no effect and ±100 for the full control effect; potency is read from the fitted curve at half-maximal effect.

The experiment deals with Rap guanine nucleotide exchange factor 4 (Homo sapiens) (UniProt Q8WZA2). The experiment is described as follows: Validation qHTS for agonist of cAMP-regulated guanine nucleotide exchange factor 4 (EPAC2).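 As to activation: exchange makes BODIPY-GDP fluorescence drop when released from Rap1B; series mostly up to about 150 µM.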 Particulars: EPAC2 Rap1B BODIPY-GDP exchange, fluorescence; activation: stronger effect = higher value. The procedure, abridged: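 Fluorescent exchange assay: 100 nM EPAC2 with 250 nM RAP1B-BODIPY-GDP and 50 uM GDP; compound added, 5 min at room temperature, then read (ex 480/em 540 nm) every 5 min for 30 min. Normalized to 6.5 mM cAMP agonist control.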
Chain of UniProt Q8WZA2 (Q8WZA2 whole entry, looked up): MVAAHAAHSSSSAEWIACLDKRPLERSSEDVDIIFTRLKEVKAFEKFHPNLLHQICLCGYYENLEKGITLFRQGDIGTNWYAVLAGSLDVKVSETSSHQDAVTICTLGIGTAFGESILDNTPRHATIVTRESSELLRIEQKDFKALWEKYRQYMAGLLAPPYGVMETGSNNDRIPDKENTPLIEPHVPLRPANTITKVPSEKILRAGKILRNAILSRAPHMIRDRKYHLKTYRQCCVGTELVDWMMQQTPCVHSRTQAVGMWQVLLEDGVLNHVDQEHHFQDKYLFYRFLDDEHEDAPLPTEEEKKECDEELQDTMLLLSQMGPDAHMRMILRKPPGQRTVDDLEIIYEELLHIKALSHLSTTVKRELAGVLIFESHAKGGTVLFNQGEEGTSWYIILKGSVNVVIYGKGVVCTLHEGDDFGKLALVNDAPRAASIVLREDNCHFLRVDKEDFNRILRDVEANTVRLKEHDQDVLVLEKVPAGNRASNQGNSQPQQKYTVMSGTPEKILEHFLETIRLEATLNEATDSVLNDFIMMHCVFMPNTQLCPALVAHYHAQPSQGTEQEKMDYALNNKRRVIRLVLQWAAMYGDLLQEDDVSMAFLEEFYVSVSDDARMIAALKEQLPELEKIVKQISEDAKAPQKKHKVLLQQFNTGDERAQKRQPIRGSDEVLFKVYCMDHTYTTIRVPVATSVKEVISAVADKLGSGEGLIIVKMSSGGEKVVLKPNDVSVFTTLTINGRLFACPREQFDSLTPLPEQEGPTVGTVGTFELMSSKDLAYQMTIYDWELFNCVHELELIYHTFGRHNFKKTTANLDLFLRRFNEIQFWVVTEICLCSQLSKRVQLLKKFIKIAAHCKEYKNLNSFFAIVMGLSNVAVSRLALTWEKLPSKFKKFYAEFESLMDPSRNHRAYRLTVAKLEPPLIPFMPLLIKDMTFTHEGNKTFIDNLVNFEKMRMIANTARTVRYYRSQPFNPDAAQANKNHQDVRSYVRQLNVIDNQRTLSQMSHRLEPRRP
Regarding `O=C(c1ccncc1)N1CCC2(CC1)CN(c1ncccn1)C2`, the activation was inactive: -0.642%.
For `CCC(=O)OCC(=O)C1(OC(=O)CC)C(C)CC2C3CCC4=CC(=O)C=CC4(C)C3(Cl)C(O)CC21C` (stereo not drawn), the activation is inactive: 12.5%.
`COc1cccc(CNc2ncnc3sc(C(=O)N4CCOCC4)c(C)c23)c1OC`: the activation was inactive: -15%.
For the compound `COC(=O)C1=C(C)NC(C)=C(C(=O)O[C@@H]2CCCN(Cc3ccccc3)C2)[C@@H]1c1cccc([N+](=O)[O-])c1`, the activation is inactive: 6.04%.
Take `c1ccc2sc(-c3cc4c(c(OC5CCOC5)c3)OCCN(Cc3cccn3-c3nccs3)C4)nc2c1` (stereo not drawn): the activation is inactive: 3.79%.
Still for that read-out and setting: the result for `C=C(C)C1(O)OC(=O)C=C1OC` (stereo not drawn) reads inactive: -13.6%; that for `COCc1ccc(C(=O)N2CCOc3ccc(CN4CCN(c5ccc(F)cc5)CC4)cc3C2)o1`, inactive: -11.5%; that for `O=c1[nH]c(-c2ccccc2O)nc2ccccc12`, inactive: 2.93%.
On to `CC12CCC3c4ccc(O)cc4CCC3C1CCC2=O` (stereo not drawn), for which the activation was inactive: -1.94%.
Turning to `CC(=O)N[C@@H](Cc1c[nH]c2ccccc12)C(=O)OCc1cc(C(F)(F)F)cc(C(F)(F)F)c1`, the activation is inactive: -49.3% and inactive: -51.7%.
Take `Cc1ccc2c(c1)c1c3n2CCNC3CCC1` (stereo not drawn): the activation is inactive: -15.4%.
With `CN1CCC(=O)N([C@H](CO)Cc2ccccc2)CC1`, the activation was inactive: -7.95%.
Regarding `Cn1nnnc1SCC1=C(C(=O)O)N2C(=O)C(NC(=O)C(O)c3ccccc3)C2SC1` (stereo not drawn), the activation was inactive: -13.1%.
Regarding `CCN(CC)CCOC(=O)c1cc(Cl)c(N)cc1OC`, the activation was inactive: 5.89% and inactive: -13.8%.
As for `O=C(c1cc(C(F)(F)F)cc(C(F)(F)F)c1)N1CCC[C@@]2(CCN(c3ccccn3)C2)C1`, the activation is inactive: -42.2%.
On to `NC/C=C/C(=O)O`, for which the activation is inactive: -6.43% [middle of 4 runs].
Turning to `CN(Cc1ccco1)c1cc(-c2cccc(NS(C)(=O)=O)c2)ncn1`, the activation was inactive: -4.17%.
Turning to `CN(C)C/C=C(/c1ccc(Br)cc1)c1cccnc1`, the activation was inactive: -15.2% and inactive: -49%.
Consider `CCOc1ccc2ccccc2c1C(=O)N[C@@H]1C(=O)N2[C@@H]1SC(C)(C)[C@@H]2C(=O)O`, for which the activation is inactive: -10.7%.
On to `C/C=C/C=C/C(=O)O`, for which the activation is inactive: -2.4%.
`O=C(c1cccc(F)c1)N1CCC2(CC1)CN(c1ccncc1)C2`: the activation was inactive: -3.15%.
Take `COc1cccc(Cn2c(=O)c(C)nc3cnc(N(C)C)nc32)c1`: the activation was inactive: -4.41%.
`CCN(CC)CCNC(=O)c1cc(Cl)c(N)cc1OC`: the activation was inactive: 0.679% and inactive: -14.3% and inactive: -34.9%.
Take `COCC(=O)N1CCC2(CC1)CN(C(=O)Nc1cccc(C#N)c1)C2`: the activation is inactive: 2.59%.
Regarding `COc1ccc(CNc2nc(-c3cccc(NS(C)(=O)=O)c3)nc3ccccc23)c(OC)c1`, the activation is inactive: 16.6%.
Same read-out and setting: next, `NCCCNCCCCNCCCN`: inactive: 2.45% and inactive: -13.7%.
Turning to `CCCN(CCC)c1ccc(/C=C/c2ccnc3ccccc23)cc1`, the Potency is active: 100 µM.
Regarding `COc1ccc(C(=O)N2CCC[C@@]3(CCN(C(=O)Nc4cccc(F)c4)C3)C2)cc1`, the activation is inactive: -1.38%.
Still for that read-out and setting: the result for `CC1=NN(c2ccccc2)C(=O)C1` reads inactive: 7.58% and inactive: 5.94% and inactive: 12.4%; that for `Cc1c(C(=O)NCc2ccco2)cnn1-c1ncc2c(n1)-c1ccccc1CC2`, inactive: -0.162%.
Still for that read-out and setting: next, `NCCCNCCCCN(CCCN)/[N+]([O-])=N/O`: inactive: -14.6%; `CCC1CN(CCNC(=O)c2cccc(N3CCCC3=O)c2)Cc2cc(OC)ccc2O1` (stereo not drawn): inactive: -8.65%; `N#C/C(=C\c1c[nH]c2ccccc12)C(=O)c1ccc(O)c(O)c1`: inactive: -46.8%.
For the compound `CC(C)NC(=O)N1CCCC2(CCN(S(=O)(=O)c3ccccc3)CC2)C1`, the activation is inactive: -15.4%.
Regarding `COc1ccccc1Oc1c(NS(=O)(=O)c2ccc(C(C)(C)C)cc2)nc(-c2ncccn2)nc1OCCO`, the activation is inactive: -16.8%.
On to `COCC(=O)N1CCC2(CC1)CCN(c1ccccc1)CC2`, for which the activation is inactive: -0.593%.
For the compound `CNC(=O)Oc1ccc2c(c1)[C@@]1(C)CCN(C)[C@@H]1N2C`, the activation was inactive: -2.49%.
Regarding `NC(N)=NCCC[C@H](N)C(=O)O`, the activation was inactive: -3.96% and inactive: -9.02% and inactive: -20.1%.
Turning to `CC(C)Cc1ccc(CC(=O)O)cc1`, the activation is inactive: -16.2%.
For `Cc1cccc(CNC(=O)c2cnn(-c3nccc(-c4cccs4)n3)c2C2CC2)n1`, the activation is inactive: -7.31%.
As to `CC1(C)CC2/C(CO)=C/C=C/[C@](C)(O)CC[C@]21O` (stereo partly drawn), the activation was inactive: -6.49%.
Turning to `COc1cc(C(=S)N2CCOCC2)cc(OC)c1OC`, the activation is inactive: -3.93%.
Regarding `CC(C)(C)Cn1nc(-c2ccc(Cl)cc2)c2c(N)ncnc21`, the activation is inactive: -19.7%.
As for `O=C(Nc1cccc(N2CCC(NCc3cnn(-c4ccccc4)n3)CC2)c1)c1cccnc1`, the activation was inactive: -3.35%.
Still for that read-out and setting: the result for `N#Cc1cccc(NC(=O)N2CCC3(CC2)CCN(C(=O)c2ccco2)CC3)c1` reads inactive: -8.7%; that for `COCCNc1nc(-c2ccccc2Cl)nc2ccccc12`, inactive: 0.503%.
Still for that read-out and setting: the result for `Cc1cnc(-n2ncc(C(=O)NCC3COCCO3)c2C2CC2)nc1-c1cccs1` (stereo not drawn) reads inactive: -6.8%.
For `CCCCC/C=C\C/C=C\CCCCCCCC(N)=O`, the activation was inactive: -14.4%.
Same read-out and setting: the result for `OCc1cccnc1` reads inactive: -9.85%.
Take `c1cncc(CNc2nc(-c3cccnc3)nc3ccccc23)c1`: the activation is inactive: -10.3%.
Same read-out and setting: the result for `COCCNc1cc(-c2ccccc2CN(C)C)ncn1` reads inactive: -7.34%; that for `CN1CCN(c2ncc3nc(CCc4ccccc4)c(=O)n(CCc4ccccc4)c3n2)CC1`, inactive: 0.7%.
With `Cc1cc(C)c2nccc(C)c2c1`, the activation was inactive: -3.69%.
Take `N[C@H](C(=O)O)[C@@H](O)c1ccc(O)c(O)c1`: the activation is inactive: -14.5%.
As to `O=C(O)Cc1c[nH]c2ccc(O)cc12`, the activation is inactive: -44%.
For `O=C(Oc1ccccc1)N1CCC2(CC1)CCN(c1cccc(-c3ccccc3)c1)CC2`, the activation was inactive: 2.78%.
As for `COC(=O)c1ccccc1C(=O)c1ccc(OCCN2CCCCC2)cc1`, the activation is inactive: -9.51%.
On to `O=C(Nc1cccc(F)c1)N1CCCC2(CCN(C(=O)c3csnn3)CC2)C1`, for which the activation was inactive: 0.113%.
On to `N[C@H](C(=O)O)c1nn[nH]n1`, for which the activation was inactive: -8.72%.
`CN1CC(=O)N/C1=N/C(=O)Nc1cccc(Cl)c1`: the activation is inactive: 4.84% and inactive: -19.3%.
Turning to `CC(=O)N[C@H](Cc1c[nH]c2ccccc12)C(N)=O`, the activation was inactive: -5.85%.
For `CC(C)=CCC/C(C)=C/CC/C(C)=C/CC/C=C(\C)CC/C=C(\C)CCC=C(C)C`, the activation is inactive: -2.05% and inactive: -3.92%.
Still for that read-out and setting: the result for `CC(C)OC(=O)c1cc2c(OCC(O)CNC(C)(C)C)cccc2[nH]1` (stereo not drawn) reads inactive: -12.5%; that for `O=S(=O)(c1ccccc1)N1CCC2(CC1)CN(c1ccccn1)C2`, inactive: 0.871%; that for `Cc1cnc(C)c(-c2cc(F)cc3c2OC(CNC(=O)Cc2ccccc2C)C3)n1` (stereo not drawn), inactive: 2.68%.
On to `COC(=O)N1CCC2(CC1)CCN(c1ccncc1)CC2`, for which the activation was inactive: -7.64%.
For `CN(C)C(=O)c1ccc(-c2ccc3ncnc(NCCN4CCOCC4)c3c2)cc1`, the activation was inactive: -11.3%.
`C=C1C(=O)C23C(O)C1CCC2[C@]12COC3(O)C(O)C1C(C)(C)CC[C@H]2O` (stereo partly drawn): the activation was inactive: -16.3%.
On to `CC(C)[N+](C)(CCOC(=O)C1c2ccccc2Oc2ccccc21)C(C)C`, for which the activation was inactive: -9.32% and inactive: -6.08%.
Same read-out and setting: next, `O=C(NCc1nnc2n1CCN(Cc1ccc(C(F)(F)F)cc1)CC2)c1ccccn1`: inactive: -8.43%; `N[C@@H](CO)C(=O)O`: inactive: -1.71% and inactive: -26.1%.
As to `CN1CCC[C@@H]1Cc1c[nH]c2ccc(CCS(=O)(=O)c3ccccc3)cc12`, the activation was inactive: -9.46%.
Regarding `CN(C)CCC=C1c2ccccc2COc2ccccc21`, the activation is inactive: -2.24%.
The same measure, in the same setting: next, `Cc1ncc2c(c1CNC(=O)c1ccc3c(c1)OCO3)CCN(C(=O)/C=C/c1ccc(Cl)cc1)C2`: inactive: -1.75%.
Consider `CCC(O)CNC(=O)c1cnn(-c2nccc(-c3cc(C)sc3C)n2)c1C1CC1` (stereo not drawn), for which the activation was inactive: 7.28%.
For the compound `CN(C)Cc1ccccc1-c1cncnc1Nc1ccncc1`, the activation is inactive: 2.36%.
With `COc1ccccc1CN1CCOc2ccc(CN3CCCCC3CO)cc2C1` (stereo not drawn), the activation was inactive: -0.288%.
With `C[C@@H]1[C@H](c2ccccc2)OCCS(=O)(=O)N1Cc1cccc(C(F)(F)F)c1`, the activation is inactive: -29.5%.
Consider `Cc1c(C(=O)N2CCN(C)CC2)sc2ncnc(NCC3(c4ccccc4)CCOCC3)c12`, for which the activation is inactive: 5.9%.
As for `Cn1c(=O)cnc2cnc(OCc3ccccc3)nc21`, the activation is inactive: -15.3%.
Consider `C[C@@H]1OC(OC2C(OC3CC[C@@]4(C)C5CC=C6C7CC(C)(C)CC[C@@]7(C(=O)O)CCC6(C)C5(C)CCC4[C@]3(C)CO)OCC(O)C2O)C(O)C(O)C1O` (stereo partly drawn), for which the activation is inactive: -17.8%.
On the same count and under the same terms, the result for `N#C/C(=C\c1ccc(O)c(O)c1)C(=O)OCCc1cccs1` reads inactive: -14.6%.
As for `COCCn1c(=O)c(-c2ccc(Cl)cc2)nc2cncnc21`, the activation was inactive: -6.48%.
As for `CCOC(=O)Cn1cccc1-c1nc(-c2ccc(OC)cc2)c(-c2ccc(OC)cc2)s1`, the activation was inactive: -15%.
`COc1ccc2[nH]cc(CCNc3ncnc4ccc(-c5ccccc5CN(C)C)cc34)c2c1`: the activation is inactive: -8.81%.
As to `C1COC(NC(C2CC2)C2CC2)=N1`, the activation is inactive: 1.11% and inactive: 7.3% and inactive: -34.1%.
Regarding `C#CCN[C@@H]1CCc2ccccc21`, the activation was inactive: -4.24%.
Regarding `C[C@](N)(COP(=O)(O)O)C(=O)O`, the activation was inactive: 1.27%.
